# The list shows a part of the results.
# Legend:
# HSkMC = human skeletal muscle cells; test: cytotoxicity call (relative viability < 0.9); conditions: 10 µM
# HepG2 = test: cytotoxicity call (relative viability < 0.9); conditions: 10 µM
# S. aureus RN4220 = test: growth inhibition call (relative growth <= 0.2); conditions: 50 µM
SMILES,cytotoxicity call (HSkMC),cytotoxicity call (HepG2),growth inhibition call (S. aureus RN4220)
Cc1ncc([N+](=O)[O-])n1CC(O)CCl (stereo not drawn),inactive,inactive,inactive
CS(=O)(=O)N1C[C@@H](O)COC[C@H]2O[C@H](CC(=O)NCCc3ccncc3)CC[C@@H]21,inactive,inactive,inactive
Cc1noc(C)c1NC(=O)N(C)C[C@H]1OCCCC[C@H](C)Oc2ccc(NS(=O)(=O)c3ccc(F)cc3)cc2C(=O)N([C@H](C)CO)C[C@@H]1C,inactive,inactive,inactive
C[C@@H]1CCCCO[C@H](CN(C)Cc2ccc3c(c2)OCO3)[C@H](C)CN([C@@H](C)CO)C(=O)c2cc(NC(=O)c3ccccc3)ccc2O1,inactive,inactive,inactive
COCC(=O)Nc1ccc2c(c1)OC[C@@H](C)N(C(=O)Cc1cccnc1)C[C@@H](C)[C@@H](OC)CN(C)C2=O,inactive,inactive,inactive
Nc1ccn(C2CCC(CO)O2)c(=O)n1 (stereo not drawn),inactive,inactive,inactive
O=C(C=Cc1ccc(O)cc1)c1ccccc1,inactive,active,inactive
COc1ccccc1C#Cc1ccc2c(c1)O[C@H](CN(C)C(C)=O)[C@@H](C)CN([C@H](C)CO)S2(=O)=O,inactive,inactive,inactive
Cc1ccc(S(=O)(=O)Nc2ccc3c(c2)CC(=O)N([C@@H](C)CO)C[C@H](C)[C@@H](CN(C)S(=O)(=O)c2ccc(F)cc2)O3)cc1,inactive,inactive,inactive
COC(=O)[C@@H]1[C@@H](c2ccc(OC)cc2)[C@H](C(=O)OC)S(=O)(=O)CS1(=O)=O,inactive,active,inactive
Cc1ccc(S(=O)(=O)N(C)C[C@@H]2Oc3c(NS(=O)(=O)c4cn(C)cn4)cccc3C(=O)N([C@H](C)CO)C[C@@H]2C)cc1,inactive,inactive,inactive

# Source: the antibiotic and cytotoxicity screens of Wong et al. (2023)
